Experimental data from PubChem BioAssay AID485344 (National Center for Advancing Translational Sciences (NCATS), 2010).
Hit rate of the full screen: of about 340,000 compounds, about 6,900 (2%) were called active. No stated cut-off is given here; in the data, active means inhibition above about 30%; inactive means below that, where a call was filed. The entries are a selection whose mix differs from that of the whole data set. Entries without a call were filed so in the source.

Target: D(2) dopamine receptor (Homo sapiens) (UniProt P14416)
Assay: HTS Assay for Allosteric Antagonists of the Human D2 Dopamine Receptor: Primary Screen for Antagonists; further: 0% is about no effect
Conditions: HEK293 TREx D2 cells, calcium flux, dopamine EC80; at 10 µM; stronger effect = higher value
How it was run: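 Calcium mobilization kinetics were recorded at 1 s intervals in tetracycline-induced HEK293 T-REx D2 cells, first for 180 s after compound addition and then 180 s after EC80 dopamine.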

Chain of UniProt P14416 (P14416 whole entry, looked up): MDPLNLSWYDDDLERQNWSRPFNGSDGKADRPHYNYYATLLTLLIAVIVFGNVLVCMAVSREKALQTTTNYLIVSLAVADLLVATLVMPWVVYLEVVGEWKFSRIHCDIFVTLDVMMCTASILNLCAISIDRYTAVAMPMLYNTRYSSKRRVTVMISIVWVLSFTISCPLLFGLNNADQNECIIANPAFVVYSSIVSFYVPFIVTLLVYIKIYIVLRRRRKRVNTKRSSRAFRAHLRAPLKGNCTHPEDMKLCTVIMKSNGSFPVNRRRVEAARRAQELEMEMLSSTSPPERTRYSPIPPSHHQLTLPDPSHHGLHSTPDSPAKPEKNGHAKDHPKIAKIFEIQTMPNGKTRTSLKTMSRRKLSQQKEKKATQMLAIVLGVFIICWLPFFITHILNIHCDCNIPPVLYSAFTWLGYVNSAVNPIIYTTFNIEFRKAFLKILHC

| Structure (SMILES) | inhibition |
| --- | --- |
| N#CCSc1nc2ccccc2c2nc3ccccc3n12 | active: 32.5% |
| CC(C)C(=O)OCc1cc(=O)n2nc(C3CC3)sc2n1 | 0.0085% |
| Cc1cc(Cl)ccc1NC(=O)CCCn1nc(C)c2c(C)n(-c3ccccc3)nc2c1=O | -9.2% |
| Cc1cc(C)cc(NC(=O)CSc2nc3sc4c(c3c(=O)[nH]2)CCCC4)c1 | 12.4% |
| CCC1CN(C(=O)Nc2cc(Cl)c(OC)cc2OC)c2ccccc2O1 (stereo not given) | 5.06% |
| CCc1ccc(C2c3c(oc4cc(C)c(C)cc4c3=O)C(=O)N2c2nc(C)c(C(=O)OC)s2)cc1 (stereo not given) | -24.2% |
| COc1ccc(-c2noc(CC(=O)Nc3ccc(C)c(F)c3)n2)cc1 | -10.8% |
| Cc1ccc(S(=O)(=O)N(C)C)cc1NC(=O)CSc1nc2ccccc2[nH]1 | active: 30.8% |
| Cc1cc(C(=O)NCc2ccccc2Cl)c2c(C)nn(-c3cccc(F)c3)c2n1 | -1.72% |
| Cc1ccc2oc(=O)n(CCNC(=O)Nc3ccc(Cl)cc3)c2c1 | -1.3% |
| O=C(NCC(c1ccco1)S(=O)(=O)c1cccs1)c1ccc(Cl)cc1 (stereo not given) | -17.5% |
| CCCN(C(=O)Nc1cn(CC(C)C)c(=O)c2ccccc12)c1ccc(F)cc1 | -3.63% |
| O=C(OCCN1C(=O)c2cccc3c(N4CCOCC4)ccc(c23)C1=O)c1cccc(Cl)c1 | active: 34.6% |
| Cc1ccc(C(=O)Nc2ccc3oc(-c4ccccc4C)nc3c2)cc1 | -21% |
| CCCCNC(=O)c1ccc2c(c1)NC(=O)C(CS(=O)(=O)Cc1ccc(C)cc1)N2 (stereo not given) | 0.245% |
| CC(=O)N1CCc2c(sc3c2c(=O)n(-c2ccc(C)cc2)c(=O)n3Cc2ccccc2C)C1 | -4.95% |
| Cc1cc(C)cc(OCC(=O)N2CCC(c3nc4ccccc4s3)CC2)c1 | 4.51% |
| CC(C)[C@@H](NC(=O)OC(C)(C)C)C(=O)NCC1CCC(C(=O)N[C@@H](Cc2ccccc2)C(=O)O)CC1 (stereo not given in full) | active: 31.8% |
| CCCN1C(=O)C(Cc2nc3ccccc3c(=O)n2-c2ccc(OC)cc2)c2cc(C)ccc21 (stereo not given) | 12.9% |
| C=CCc1cc(Cl)ccc1OCCN(C)C | active: 53.2% |

| Structure (SMILES) | inhibition |
| --- | --- |
| CCc1cccc(C)c1NC(=O)CSc1nc2c(c(=O)[nH]1)CCC2 | -1.28% |
| Cn1cc(S(=O)(=O)c2cccc(Cl)c2)c(=O)c2cc(F)c(N3CCCCC3)cc21 | -11.2% |
| O=C(NCCc1ccc(Cl)cc1)c1ccc(CSCc2cccc(Cl)c2)o1 | -13.8% |
| Cc1ccc(Cl)cc1NC(=O)c1oc2ccc(S(=O)(=O)N3CCCCCC3)cc2c1C | -13% |
| CCOc1ccc(-c2cc(C(=O)NCCc3ccc(OC)c(OC)c3)c3c(-c4ccc(F)cc4)[nH]nc3n2)cc1 | -8.31% |
| COc1ccc(Cl)cc1NC(=O)c1cc(S(=O)(=O)N(C)Cc2ccccc2)ccc1F | -21.5% |
| Cc1ccc(C)c(N2CCN(c3nc4ccc(C(=O)c5ccccc5)cc4n4cnnc34)CC2)c1 | -11.4% |
| CCOC(=O)c1cnc2c(C)cccc2c1Nc1ccc(OC(C)C)cc1 | -6.14% |
| COc1ccccc1CN(Cc1c(Cl)cccc1Cl)S(=O)(=O)c1ccc(Br)cc1 | -4.47% |
| NC(=O)CSc1nc2ccc(NC(=O)COc3ccccc3Cl)cc2s1 | 3.74% |
| CS(=O)(=O)N(Cc1ccccc1)c1ccc(C(=O)Nc2ccc(Cl)cc2)cc1 | -6.45% |
| Cc1cccc(-n2nc(C)c(C(=O)N3CCN(c4ccccc4)CC3)c2-n2cccc2)c1 | -6.12% |
| COc1ccccc1C(=O)Nc1ccc(S(=O)(=O)Nc2ncccn2)cc1 | 16.4% |
| Cc1ccc(C)c(N2CCN(C(=O)C(CC(C)C)NS(=O)(=O)c3ccc4nc(C)sc4c3)CC2)c1 (stereo not given) | 15.2% |
| COc1ccc(NS(=O)(=O)c2c(C)cc(C)cc2C)cc1 | active: 33.5% |
| Cc1nc(SCC(=O)Nc2ccc(C(=O)O)cc2)n[nH]1 | 20.9% |
| COc1ccc(OC)c(NC(=O)CC(=O)Nc2ccc3nc4n(c(=O)c3c2)CCCCC4)c1 | -0.682% |
| CCOc1ccccc1C(=O)N1CCC(c2nc3ccccc3o2)CC1 | -2.7% |
| CCc1ccccc1NC(=O)Cn1nc(N2CCN(c3ccccc3OC)CC2)ccc1=O | 9.91% |
| Cc1cc(C)c(OCCOCCn2c(-c3ccc(Cl)cc3)nc3ccccc3c2=O)c(C)c1 | -10.8% |

| Structure (SMILES) | inhibition |
| --- | --- |
| Cc1ccc(C2CCN(C(=O)c3cnn(-c4ccc(C)c(C)c4)c3C3CCN(C(=O)OC(C)(C)C)CC3)C2)cc1 (stereo not given) | -0.702% |
| Cc1cccc(NC(=O)N2CCC(CN3CCCCCC3)CC2)c1C | -10.9% |
| CC1CCN(S(=O)(=O)c2ccc3c(c2)CCN3C(=O)Nc2ccc(Br)cc2F)CC1 | 19.2% |
| O=C(Nc1ccccc1C(F)(F)F)N1CC=C(c2c[nH]c3ccccc23)CC1 | 13.6% |
| COC(=O)CC(=O)CSc1nc2cc(C(=O)NCC(C)C)ccc2c(=O)n1CCc1ccccc1 | 12.6% |
| Cc1c(Cl)ccc2sc(N3CCN(C(=O)C4CC4)CC3)nc12 | 6.76% |
| COc1ccc(-c2onc(C)c2C)cc1S(=O)(=O)N1CCN(c2cc(C)ccc2C)CC1 | -14.2% |
| COc1ccc(-c2cc3nc(C)c(CCC(=O)NC(C)c4ccccc4)c(C)n3n2)c(OC)c1 (stereo not given) | 5.42% |
| CN(C)S(=O)(=O)c1cc(NC(=O)CN2CCN(c3ccccc3F)CC2)ccc1Cl | active: 53.2% |
| Cc1nn(C(=O)c2cccc([N+](=O)[O-])c2C)c(C)c1S(=O)(=O)N1CCCCCC1 | -15.3% |
| CCOc1ccc(N(CC)S(=O)(=O)N2CCCC(C(=O)Nc3ccc(OC)c(Cl)c3)C2)cc1 (stereo not given) | 1.72% |
| Cc1cccc(NC(=O)CN2C(=O)CSc3ccc(S(=O)(=O)N4CCCC4)cc32)c1C | -10.5% |
| COc1cccc(NC(=O)CSc2c3c(nc4ccccc24)CCCC3)c1 | 16.4% |
| COc1ccc(OC)c(NC(=O)N2CC3CCCN3c3ccccc32)c1 (stereo not given) | -2.67% |
| O=C(CC1NCCc2ccccc21)Nc1ccc(Oc2ccccc2)cc1 (stereo not given) | active: 60.3% |
| CCOC(=O)c1cccc(NC(=O)N2CC=C(c3c[nH]c4ccccc34)CC2)c1 | 3.2% |
| CC(=O)c1ccc(NC(=O)CC2Oc3ccc(C)cc3NC2=O)cc1 (stereo not given) | 12.5% |
| CCOC(=O)Cc1c(C(=O)OCC)nnc2c(-c3ccccc3)c(C)nn12 | -2.9% |
| CCCNC(=O)N1[C@H](c2cccs2)[C@@H](C)C(=O)[C@@H](C)[C@@H]1c1cccs1 | -4.24% |
| COc1cccc(N2CCN(c3ncnc4c3c(-c3ccccc3)cn4-c3cccc(C(F)(F)F)c3)CC2)c1 | 6.4% |
